Assay results: PubChem BioAssay AID720542 (National Center for Advancing Translational Sciences (NCATS), 2013)
In all, about 360,000 compounds went through this assay and about 740 (0.21%) were called active. This list was built around the results that the source calls inconclusive (neither active nor inactive); the mix of calls is not that of the screen. Calls follow the shape of the dose curve; as a rule, active = well fitted inhibition curve with a large enough effect; inconclusive = small, poorly fitted or top-dose-only effect; inactive = no such curve, though single readings can be large or run the other way. No potency is given beside an inconclusive call; the fits are too rough.
Also: nearly all actives have a fitted effect of over 45% in size.
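For activity change, negative = inhibition in this document: 0% = vehicle wells and -100% = peptide control.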
Potency is read from the fitted curve at half-maximal effect; tags tell the direction and shape of the fitted curve.

These compounds were tested on Plasmodium falciparum AMA1 (3D7) - RON2 peptide interaction (assay: qHTS for Inhibitors of AMA1-RON; Towards Development of Antimalarial Drug Lead: Primary Screen). Settings: AlphaScreen AMA1-biotinylated RON2 peptide binding; activity change, negative = inhibition: at 58.2 µM (top of the series) unless noted.
Summary of the method: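 AMA1 (3D7) with his tag at 25 nM final met compounds first, then biotinylated RON2 peptide at 25 nM; detection used donor plus acceptor beads, 10 µg/mL apiece, read by AlphaScreen after 30 min at room temperature.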
`C=CCN1C(=O)C(CC(=O)Nc2ccc(OCCC)cc2)N(CCCN2CCN(Cc3ccccc3)CC2)C1=S` (configuration not stated) was tested, and the Potency was inconclusive [inhibitor, full curve]. `CC1=CC(=O)C=CC1=Nc1ccc(N(C)C)cc1` was tested, and the Potency was active: 3.98 µM. `CCOc1ccc(-c2nc(C#N)c(N3CCCCCC3)o2)cc1` was tested, and the Potency was inconclusive [inhibitor, single point]. In the case of `CCCCCCn1ccc(=N)cc1`, the “activity change, negative = inhibition” value is reported as inactive: -0.826%. For `O=C1CCC/C1=C\Nc1ccc(Cl)c([N+](=O)[O-])c1`, the activity change, negative = inhibition was inconclusive: -34.5% [inhibitor]. With `O=C(CSc1ccc(Cl)cc1)N1CCN(c2c(Cl)cccc2[N+](=O)[O-])CC1` the Potency was inconclusive [inhibitor, partial curve]. `CCCNS(=O)(=O)c1ccc(OCC(=O)N2CCN(C)CC2)cc1` was tested, and the activity change, negative = inhibition was inconclusive: -19% [inhibitor]. `Cc1ccc(SCCCCN2CCNCC2)cc1` was tested, and the Potency was inconclusive [inhibitor, single point]. In the case of `COc1ccc(N2CCN(C(=O)c3oc4ccccc4c3C)CC2)cc1`, the Potency is reported as active: 14.1 µM. `O=C(c1[nH]c(C(F)(F)F)nc1-c1ccccc1)N1CCN(c2ncccn2)CC1` was tested, and the Potency was inconclusive [inhibitor, partial curve]. In the case of `O=S(=O)(c1ccccc1)N1CCN(CC(O)COc2ccc3c(c2)CCC3)CC1` (configuration not stated), the Potency is reported as inconclusive [inhibitor, partial curve]. With `CCOC(=O)c1c(C)nc2c(C)cccn12` the “activity change, negative = inhibition” value was inactive: 1.67%. For `CC(C)NC(=O)Cn1cnc2c(cnn2-c2ccc(F)cc2)c1=O`, the “activity change, negative = inhibition” value was inactive: 4.79%. `O=C(/C=C/c1cccs1)c1cc(Br)ccc1OC(=O)N1CCOCC1` was tested, and the Potency was inconclusive [inhibitor, single point]. `O=C(CN1CCN(c2cccc(C(F)(F)F)c2)CC1)Nc1cccc(C(F)(F)F)c1` was tested, and the Potency was inconclusive [inhibitor, single point]. With `COc1ccc(NS(=O)(=O)c2ccc(NC(=S)NC(=O)c3ccc(F)cc3)cc2)nn1` the “activity change, negative = inhibition” value was inactive: 7.82%. For `c1ccc(CN2CCN(C(c3ccccc3)c3nnnn3Cc3ccccc3)CC2)cc1` (configuration not stated), the Potency was inconclusive [inhibitor, partial curve]. With `Cc1cc(C(=O)CSc2ccc(F)cc2)cc(C)c1OC(=S)N(C)C` the “activity change, negative = inhibition” value was inactive: 9.89%. `Cc1ccc(-n2nc3c(N4CCC(C(=O)NCc5cccc(F)c5)CC4)nnc(C)c3c2C)cc1` was tested, and the Potency was inconclusive [inhibitor, single point]. In the case of `CC1=NN(CCC#N)C(=O)/C1=C/c1ccc(N(C)C)cc1`, the Potency is reported as inconclusive [inhibitor, single point]. For `COC(=O)c1c(-c2c(Cl)cccc2Cl)noc1NC(=O)N(C)C`, the “activity change, negative = inhibition” value was inactive: 15.9%. `O=C(CCn1c(=S)[nH]c2ccccc2c1=O)Nc1ccc(F)cc1` was tested, and the “activity change, negative = inhibition” value was inactive: 33.3%. With `CCOc1ccc(S(=O)(=O)N(C)c2ccc(OCC(=O)Nc3nc(-c4cc(OC)ccc4OC)cs3)cc2)cc1` the Potency was inconclusive [inhibitor, full curve, poor fit]. For `CCN(CC)c1ccc(Nc2nc(-c3cccnc3)cs2)cc1`, the Potency was active: 28.2 µM. In the case of `CN(C)c1ccc(CC(=O)N2CCCCC2c2cc(C(=O)Nc3cccc(C#N)c3)no2)cc1` (configuration not stated), the Potency is reported as inconclusive [inhibitor, single point]. In the case of `COc1cc(OC)cc(C(=O)N2CCN(Cc3ccccc3[N+](=O)[O-])CC2)c1`, the Potency is reported as inconclusive [inhibitor, single point]. With `CCSc1ccc2c(c1)N(CCCN1CCN(C)CC1)c1ccccc1S2` the Potency was inconclusive [inhibitor, partial curve]. `CC(C)c1ccc(NC(=O)Cc2cn(C)c3ccccc23)cc1` was tested, and the Potency was inconclusive [inhibitor, partial curve]. For `c1ccc(-c2ccc(OCCCn3cncn3)cc2)cc1`, the Potency was inconclusive [inhibitor, single point]. With `O=C(c1ccc(Br)o1)N1CCC(Cc2ccccc2)CC1` the Potency was inconclusive [inhibitor, single point]. In the case of `COc1ccc(N2CCN(C(=O)c3cccc(S(=O)(=O)N4CCc5ccccc54)c3)CC2)cc1`, the Potency is reported as inconclusive [inhibitor, single point]. With `N/C(=N\OC(=O)CCC1CCCCC1)c1ccc([N+](=O)[O-])cc1` the Potency was inconclusive [inhibitor, partial curve]. With `COc1cc(OC)c(CN2CCCN(C)CC2)cc1Br` the “activity change, negative = inhibition” value was inactive: 13.8%. With `CCOC(=O)c1c(-c2ccccc2)oc2ccc(OCC)cc12` the “activity change, negative = inhibition” value was inactive: 136%. For `O=C1CSC(=S)N1Cc1cccnc1`, the Potency was inconclusive [inhibitor, partial curve]. For `CN(c1ccc(Cl)cc1)c1cc2c(c3c1ccn3C)C1CCC2C1` (configuration not stated), the Potency was inconclusive [inhibitor, single point]. With `C[C@]12CCC3C(CCC4=CC(O)CC[C@@]43/C=N/O)C1(O)CCC2C1=CC(=O)OC1` (some centres not stated) the “activity change, negative = inhibition” value was inactive: 17.4%. `CC(C)(C)c1cc(NC(=O)COC(=O)c2ccc(O)cc2O)n(-c2ccccc2)n1` was tested, and the “activity change, negative = inhibition” value was inactive: -4.07%. `Cc1nn(-c2ccccc2)c(C)c1/C=N/n1c(-c2ccc(C(C)(C)C)cc2)n[nH]c1=S` was tested, and the “activity change, negative = inhibition” value was inactive: -6.64%. In the case of `CN(C)c1ccc(C(=S)N2CCN(c3ccccc3)CC2)cc1`, the Potency is reported as inconclusive [inhibitor, partial curve]. `CC(CNC(=O)CC(C)(C)C)NC(=O)CC(C)(C)C` (configuration not stated) was tested, and the Potency was inconclusive [inhibitor, partial curve]. In the case of `Cc1cnc(NC(=O)CSc2ccccc2)s1`, the “activity change, negative = inhibition” value is reported as inactive: 3.6%. In the case of `CN(C)c1ccc(C(CC(=O)c2ccccc2)C2CCCCC2=O)cc1` (configuration not stated), the Potency is reported as inconclusive [inhibitor, partial curve]. In the case of `O=C1COc2ccc(-c3csc(NCCc4ccccc4)n3)cc2N1`, the “activity change, negative = inhibition” value is reported as inactive: -4.06%. In the case of `CN(CCOc1ccc(Br)cc1)CC(O)c1ccccc1` (configuration not stated), the Potency is reported as inconclusive [inhibitor, partial curve]. `Cc1nc(NC(=O)CSc2nnnn2Cc2ccccc2)sc1C` was tested, and the Potency was inconclusive [inhibitor, single point]. With `Cc1cc(C(F)(F)F)cc(NNC(=O)NC(=O)c2ccccc2Cl)n1` the “activity change, negative = inhibition” value was inactive: 101%.
